Test results as given in PubChem BioAssay (NCATS).
Values joined by “and” are separate entries in the source; they are usually repeats but may differ in a detail not shown here. Equal values may be shown once. Inconclusive means that the source gave no clear call. Such entries were picked first, then a sample of the others. Entries that show only a call come without a potency. Potencies beside an inconclusive call are fits to weak or partial responses and may not hold up. Active and inactive are the calls of the source. The call rests on the fitted dose curve; in most records, active means well fitted inhibition curve with a large enough effect; inconclusive means small, poorly fitted or top-dose-only effect; inactive means no such curve, though single readings can be large or run the other way.

Assay: qHTS screen for small molecules that inhibit ELG1-dependent DNA repair: Hit Confirmation in Cell-Based Luciferin Assay (AID 624247)
Settings: cell-free firefly luciferase luminescence counter-screen, ViewLux; series mostly up to 46.1 µM
In short: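 Cell-free confirmation: 23 nL compound pin-transferred onto luciferin substrate reagent, then luciferase added. Luminescence read on a CCD imager; loss of signal flags luciferase-reporter interference.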
Potency means the concentration at half of the fitted maximal effect; tags describe the fitted curve by direction and shape.

| SMILES | Potency |
| --- | --- |
| COc1ccc(-n2c(C)c(C(C)=O)c3cc(OC(C)=O)ccc32)cc1 | inactive |
| Cc1cc(C(=O)COC(=O)C2=COCCO2)c(C)n1-c1ccccc1 | active: 11.2 µM |
| Cc1ccc(-c2nnc(SCC(=O)Nc3ccccc3F)o2)cc1 | active: 10.2 µM and active: 8.89 µM |
| COc1ccc2cc3c(N)nn(C(=O)c4ccccc4Cl)c3nc2c1 | inconclusive: 0.706 µM [inhibitor, partial curve, poor fit] |
| O=c1c2ccccc2oc2ccc(-c3ccc4cc[nH]c4c3)cc12 | inactive |
| CC(=O)Nc1ccc(SCC(=O)c2cc(C)n(Cc3cccs3)c2C)cc1 | inconclusive: 0.223 µM [inhibitor, full curve] |
| OCCCNc1nccc(-c2cc(Nc3cccc(Cl)c3)ncn2)n1 | inconclusive: 7.92 µM [inhibitor, full curve] |
| CS[C@@H]1SC[C@H]2C(=O)N(C)C(C(C)C)C(=O)OC[C@@H](NC(=O)c3cnc4ccccc4n3)C(=O)N[C@@H](C)C(=O)N(C)[C@H]1C(=O)N(C)C(C(C)C)C(=O)OC[C@@H](NC(=O)c1cnc3ccccc3n1)C(=O)N[C@@H](C)C(=O)N2C (stereo partly drawn) | inconclusive: 0.158 µM [inhibitor, full curve] |
| O=C(NCc1cccs1)c1cc(-c2ccccc2)on1 | inactive |
| Cc1cc(S(=O)(=O)Nc2nc(CN3CCOCC3)nc3sc4c(c23)CCCC4)ccc1F | inactive |
| C(=C\c1nc2ccccc2s1)/c1ccc2c(c1)OCO2 | active: 19.9 µM |
| Cc1ccc2c(c1)sc1nc(=O)n(-c3ccccc3)c(=O)n12 | inactive |
| CC1CCCCC1NC(=O)CN1C(=O)NC(C)(c2ccc(OC(F)F)cc2)C1=O (stereo not drawn) | inactive |
| Clc1ccccc1C1=Nn2c(nnc2-c2ccncc2)SC1 | inconclusive: 4.45 µM [inhibitor, full curve] |
| O=C(Nc1nc(-c2ccccn2)cs1)c1ccc(S(=O)(=O)N2CCCCC2)cc1 | inconclusive: 36.3 µM [inhibitor, partial curve, poor fit] |
| COCCn1c(C)cc(C(=O)COC(=O)c2cccnc2SC)c1C | inactive |
| CC(=O)c1cc2c(cc1NC(=O)CSc1nc3ccccc3o1)OCO2 | inactive |
| C(=C\c1c[nH]c2ccccc12)/c1ccc2ccccc2n1 | inactive |
